The source gives no read counts; variants with many changes may rest on few reads.
B1: LINE1-mini (parent)
chain: GGCAGAGCUCAACACAGCGUGGCAAAGUGGCUGUGGCUAGACUGCC

Variants of: B1
Assay: self-cleavage, relative activity (ratio to wild type); higher = more cleavage; in vitro, sequencing; the parent is a self-cleaving ribozyme

Question: With AGCAGAGCUCAACAAAGCGUGGCAAAGUAACUGUGGCUAGACUGUC as the variant, how does the self-cleavage read?
Answer: 0.02

Question: Which self-cleavage does the source give for AGCAGAGCUAAACACCGCGUGGCAAAUUGGCUGUGGCUAGACUGCC here?
Answer: 0.07

Question: Which self-cleavage does the source give for AGCAGAGGUCAACACACCGUGGCAAAGUGGCUGUGGCUAGACUGUC here?
Answer: 0.04

Question: For AGCAGAGAUCAACACAGCCUGGCAAAGGGGCUGUGGCUAGAUUGCC, which self-cleavage is on record?
Answer: 0.42

Question: Which self-cleavage does the source give for AGCAGAGCUCAAGCCAGCGUUGCAAAGUGGCUGGGGCUAGACUGCC here?
Answer: 0.01

Question: With AGCAGAGCUCAACACAGCGUGGCAAGGAUGCUGUGUCUAUACUGCC as the variant, how does the self-cleavage read?
Answer: 0.07

Question: For AGAAGAGCCCAACACAACGUGGCAAACUGGCUGUGGCUAGACUGCC, which self-cleavage is on record?
Answer: 0.15

Question: Which self-cleavage does the source give for AGCAGAGCUCAGCACGGCGUAGCAAAGUGGCUGUGGCUAGACUGCC here?
Answer: 0.05

Question: Which self-cleavage does the source give for AGCGGAGCUCAAUACCGCGUGGCAAAGUGGCUCUGGCUAGACUGCC here?
Answer: 0.05

Question: With AGCAGAGCUAAACACAGCGUGGCAAAAUGGCUGUGGCUGGACUGCC as the variant, how does the self-cleavage read?
Answer: 0.13

Question: For AGAAGAGCUCACCACAGCAUGGCAAAGUGGCUGUGGAUAGACUGCU, which self-cleavage is on record?
Answer: 0.09

Question: With AGUUGAUCUCAACACAGCGUGGCAAAGUGGCUGUGGCUAGACUGCC as the variant, how does the self-cleavage read?
Answer: 0.54

Question: Which self-cleavage does the source give for AGUAGAGCGCAACACAGCGUGGCAAAGUGUCUAGGGCUAGACUGCC here?
Answer: 0.21

Question: With AGCAGAGUUCAACACAUCGUGGCAAAGUGCCUGUGGCUUGACUGCC as the variant, how does the self-cleavage read?
Answer: 0.7

Question: Which self-cleavage does the source give for AGUAGAGACCAACACGGCGUGGCAAAGUCGCUCUGGCUUGACUGCC here?
Answer: 0.08

Question: Which self-cleavage does the source give for AGAAGAGCUCAACACAGCGUGGCAAACUAUUUGUGGCUUUACUGCU here?
Answer: 1.23

Question: Which self-cleavage does the source give for AGCAGAGCUUAACACAGCGUGGCAAAGUGGCUGUGGCUAUACUGCC here?
Answer: 0.06

Question: With AGCAGAGCUCAACGCAGCGUGGCUAAGUGGCUGUGGCUAGACUGCC as the variant, how does the self-cleavage read?
Answer: 0.03

Question: Which self-cleavage does the source give for AGCAGAGUUCAACACAGCGUGGUAAAGUGGCUGUGGCUAGACUGCG here?
Answer: 0.04

Question: With AGCAGAGCUAAACACAGCUUGGCAAAGUUGCUGUGGCUAGACUGCC as the variant, how does the self-cleavage read?
Answer: 0.09

Question: For AGCAGAGCUCGCCACAGCGUGGCAAAGUGGCUGUGGCUCGACUGCC, which self-cleavage is on record?
Answer: 0.01

Question: Which self-cleavage does the source give for AGCAGAGCUCAACAAAGCGUGGGAAAGUCGCUGUGACUAGACUGUC here?
Answer: 0.01

Question: With AGCAGAGCUCCACACACCGUGGCAAUGUGGCUGUAGCUAGAUUGCC as the variant, how does the self-cleavage read?
Answer: 0.01

Question: With AGCUGAGCUCAACACAGCGUGGCAAAGUGGCUGUGGCUUGACUGCC as the variant, how does the self-cleavage read?
Answer: 0.13

Question: For AGCGGAGCUCACCACAGCGUGGCAAAGUAGCUGUGGCUAGACUGCC, which self-cleavage is on record?
Answer: 0.03

Question: Which self-cleavage does the source give for AGCCAAGCUCAACACAGCGUGGCAAAGUGGCUGUGGCUAGACUGCU here?
Answer: 0.07

Question: With AGCAGAGCUCAAUACAGCGUGGCAGAGUGGCUGUGGCUAGACUGCC as the variant, how does the self-cleavage read?
Answer: 0.03

Question: With AGCAGAGCUAAACACAGCGUGGCAAAGCGGCUGUGGCUCGACUGCC as the variant, how does the self-cleavage read?
Answer: 0.06

Question: Which self-cleavage does the source give for AGCAGAGCUCAACACAGCGUGGCAAAGUGGCUGUGGCUGGACUGAC here?
Answer: 0.04

Question: Which self-cleavage does the source give for AGCCGAGAUCAACACAGCGUGGCAAAGUGGCUGGGGCUAGACUGCC here?
Answer: 0.32

Question: With AGCAGAGCUCAAAACGGCGUGGCAAAGUGGCUGUGGCUAUACUGCC as the variant, how does the self-cleavage read?
Answer: 0.02

Question: For AGCAGAGCUCAACACAGCGUGGCAAUGUGCCUGUGGCUAGACUGCC, which self-cleavage is on record?
Answer: 0.26

Question: With AGCAGAGCUCAACACAGCGUGGCACAGUGGCUGUGGCUGGACUGCC as the variant, how does the self-cleavage read?
Answer: 0.12

Question: For AGCAGAGCUCAAGACUGCGUGGCAAAGUGGAUGUGGCUAGACUGAC, which self-cleavage is on record?
Answer: 0.06

Question: With AGCAGAGCUUACCACAGCGCGGCAAAGUCGCUGUGGCUAGAAUCCC as the variant, how does the self-cleavage read?
Answer: 0.01

Question: With AGUAGAGCUCAACCCAGCGUGGCAAAGUGGCUGUGGCUAGACUGCC as the variant, how does the self-cleavage read?
Answer: 1.35

Question: Which self-cleavage does the source give for AGCAGAGCUCAACACAGCGUGGCAAUGUGGCUAUGGCUAGACUGCC here?
Answer: 0.03

Question: With AGCGGAGCUCAACACAGCGUGGCAAAGUGGAUGUGGCUAGACUGCC as the variant, how does the self-cleavage read?
Answer: 0.05

Question: Which self-cleavage does the source give for AGCAGAGCUCAAUACAGCGUGGAAAGGUGGCCGUGGAUUGCCCGCC here?
Answer: 0.1

Question: For AGCAGAGUUCAACCCAUCGUGGCAAAGUGGCUGUGGCUAGACUGCC, which self-cleavage is on record?
Answer: 0.06

Question: Which self-cleavage does the source give for AGCAGAGCUCAACCCAGAAUGGCAAAGUGGCUAUGGCUAGACUGCC here?
Answer: 0.03

Question: For AGAAGAGCUUUACACUGCGUGGCAAAGUGGCUGUGACUAGACUGCC, which self-cleavage is on record?
Answer: 0.12

Question: Which self-cleavage does the source give for AGCAGAGCUAAACACAGCGUGGCAAAGUGGCUGUGGCUAGCCUGCC here?
Answer: 0.04

Question: With AGCAGAGCUCCACACAGCGUAGCAAAGUGGCUGUGGCUAGACUGCC as the variant, how does the self-cleavage read?
Answer: 0.07

Question: With AGCAGAGCUAAACACAGCGUGGCGAAGUGGCUGUGGCUAGCCUGCC as the variant, how does the self-cleavage read?
Answer: 0.03

Question: With AGAAGAGCUCAACACGGCGUGGGAAAGUGUCUGUGGCUAGAAUGCC as the variant, how does the self-cleavage read?
Answer: 0.07

Question: For AGCAGAGAUCAACACAGCGUGGUAAAGUGGCUGUGGCUAGACUGCC, which self-cleavage is on record?
Answer: 0.32

Question: With AGCAGAGCUCAUCACAGCGUGGCAAAGUGGCUUUGGCUAGACUGCC as the variant, how does the self-cleavage read?
Answer: 0.07

Question: For AGCCGAGCUCAACGCAUCGUGGCAAAGUGGCUGUGGCCAGACUGCC, which self-cleavage is on record?
Answer: 0.75

Question: Which self-cleavage does the source give for AGCAGAGCUCAACCCAGCGUGGCAAAGUGGCUUUGGCAAGACUGCC here?
Answer: 0.06

Question: Which self-cleavage does the source give for AGCUGAGCCCGACACAGCGUGGCAAAGUGGCUGUGGUUAGACUGCC here?
Answer: 0.09

Question: Which self-cleavage does the source give for AGCAGAGCUCAACACAGCGUGGCGAAGUGGCUGUGGCUAGAUUGCC here?
Answer: 0.09

Question: For AGCAGAGCUCAACACAGCGUGGCAAUGAGGCUGUGGCUAGACUGCC, which self-cleavage is on record?
Answer: 1.36

Question: For AGUAGAGCUCAACACGGCGUGGCAAAGUGGCCGUGACUAGACUGCC, which self-cleavage is on record?
Answer: 0.06

Question: With AGCAGAGCUCAACACAGCGUGGCAAUAUGUCUGCGGCUAGACUGCC as the variant, how does the self-cleavage read?
Answer: 0.11

Question: With AGCAGAGCUAAACACAGCGUGGCAAAGUGACUGUAGCUAGACUGUC as the variant, how does the self-cleavage read?
Answer: 0.17
